Data as given in the supplement of paper PMC3334620.
In all, about 33,000 sequences were measured (“E-score (-0.5 to 0.5)”: median about -0.017, highest 2% from about 0.3 on). The list shows a part of the results.

What follows are sequences tested against T1, Sut1 (UniProt P53032) (assay: PBM E-score (8-mer binding enrichment) (E-score (-0.5 to 0.5)); higher = stronger / more preferred TF binding; most listed sequences are background and not binding sites). Settings: protein concentration: 200 nM; construct: GST-full length.
T1 sequence: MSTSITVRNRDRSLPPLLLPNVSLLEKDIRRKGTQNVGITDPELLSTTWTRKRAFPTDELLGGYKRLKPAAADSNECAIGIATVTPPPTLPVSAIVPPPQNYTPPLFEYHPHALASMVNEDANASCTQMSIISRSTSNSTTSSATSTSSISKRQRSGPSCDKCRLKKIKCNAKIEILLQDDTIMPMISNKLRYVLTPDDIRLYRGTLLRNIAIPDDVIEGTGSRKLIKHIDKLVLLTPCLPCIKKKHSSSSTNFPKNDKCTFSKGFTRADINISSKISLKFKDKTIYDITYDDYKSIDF
How it was run: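 Detection of bound protein used fluorescent anti-GST, with scans normalised by masliner. The proteins were GST-tagged yeast transcription factors applied at about 100-200 nM to universal all-10-mer Agilent arrays made double-stranded by primer extension. Each ungapped eight-base word, pooled with its reverse complement, was scored with an E-score from the Universal PBM Analysis Suite.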

Point of comparison: CCAGCACG, “PBM E-score” value -0.277. Against it:
- GAGCTCCA — higher, -0.0878
- ACAAGTGT — higher, -0.0511
- AGCATCAC — higher, -0.193
- ATAATTAA — higher, 0.314
- ACATGGAG — higher, -0.22
- GATCGGTA — higher, 0.188
- AAGACATT — higher, -0.118
- GCACCGCC — higher, -0.248
- AGCAGGGC — lower, -0.32
- ACGATCTG — higher, -0.133
- CTGGTATC — higher, -0.215
- CGCCCTGA — higher, -0.105
- GCATGAAA — higher, 0.047
- TGGGACAA — higher, -0.165
- CGCCGATC — higher, 0.137
- ATAAACAC — higher, 0.0929
- GCCAAAAA — higher, 0.175
- ACGAACAG — higher, -0.146
- AAGAACCG — higher, 0.222
- CATCTCTA — higher, 0.0078
- ACATTCCT — higher, -0.0661
- AGCCGAAC — higher, -0.0293
- CCCCCAAG — higher, -0.13
- GCGGTTCA — higher, -0.182
- GCAACCTA — higher, -0.0902
- GACCGCAA — higher, -0.0776
- CTCAGGAC — higher, -0.127
- ATGCACGA — higher, -0.0413
- CACAAACC — higher, -0.0926
- CCTCCAGG — lower, -0.325
- ACTTCTAT — higher, 0.094
- AACTACAT — higher, 0.141
- TAACCAAA — higher, 0.248
- TGGGCCCA — higher, -0.0911
- CCGACATA — higher, 0.0387
- ACTAGGTA — higher, 0.111
- AAAAGGCT — higher, -0.0471
- TGACTAAA — higher, 0.128
- CTTGATGA — higher, 0.104
- CTAAATAC — higher, 0.144
- CGTCGAAG — higher, -0.0997
- ACCTGTCG — higher, -0.0238
- AGTGGTAA — higher, 0.0603
- CGAAGATC — higher, 0.0352
- CGTCCATC — higher, 0.0407
- ACCGTCGA — higher, -0.137
- ATTGAGAA — higher, 0.264
- GGCGTAAA — higher, 0.0487
- GAACGGGA — higher, 0.0237
- ACCCAAGC — higher, -0.226
- CGAAGAAG — higher, 0.0783
- AATCCGTC — higher, 0.0795
- AGAAATCC — higher, 0.105
- AGGGATTA — higher, -0.147
- ACTACCAC — higher, -0.0627
- CCTGAGCA — higher, -0.0293
- CTAGTGCC — higher, -0.184
- GACAAGGA — higher, 0.052
- AAACTCTT — higher, -0.0658
- AGGATACA — higher, 0.0244
- GTGGCGGA — higher, 0.124
- CCTTGGAA — higher, 0.0966
- ACAAGGCA — higher, -0.0581
- CAGCCACG — higher, -0.06
- AGTCTCAA — higher, -0.149
- GAGTGGCA — higher, -0.173
- ACTACCTG — higher, -0.0394
- GTACACAC — higher, 0.0244
- AGAGAATG — higher, -0.00446
- AATAAAGT — higher, 0.22
- GCTATGCC — higher, -0.171
- CCCTGCTA — lower, -0.278
- TCTATCAA — higher, 0.0982
- CGTGTGGC — higher, -0.162
- ACTACCAG — higher, -0.0981
- AGTCATGG — higher, 0.00723
- CTCACACC — higher, -0.164
- ATGTCCTC — higher, -0.146
- CATTGGTA — higher, 0.114
- GCTCTTGA — higher, -0.0645
- CGCCTATC — higher, -0.0597
- ATCGCCAA — higher, -0.0192
- GGGTCGCA — higher, -0.0918
- ACCATGCG — higher, -0.0896
- CGCATCCG — higher, 0.0404
- ATCCATTA — higher, 0.076
- AGATTTGC — higher, 0.072
- ATACATCG — higher, 0.128
- AACGCATG — higher, -0.114
- ACGACTAG — higher, -0.0608
- CGCCCGCC — higher, -0.195
- CACGACGC — higher, -0.224
- CATGGCGC — higher, -0.0707
- ACGGGGCG — higher, 0.0468
- ATACAATC — higher, 0.236
- AAACTCCA — higher, 0.297
- AACAAGTT — higher, 0.132
- AGTGCAGA — higher, 0.00361
- AAAACCGC — higher, 0.113
- AGTACAGC — higher, -0.0707
- AGGTCGTA — higher, -0.0445
- ACTCCTCA — higher, 0.0205
- AACGAGCT — higher, -0.0799
- AAACCTTC — higher, -0.0412
- CCTCAGCG — higher, -0.118
- GATTGTTA — higher, 0.167
- CCAGTAGC — higher, -0.0812
- CCCGACTC — higher, -0.0963
- ATGAACTG — higher, 0.0691
- AGTGGAAG — higher, -0.126
- CTGCGCAA — higher, 0.0232
- CGATCCGA — higher, 0.101
- CACCCTCC — higher, -0.0973
- CAAAACAC — higher, 0.14
- TAACTACA — higher, 0.179
- ACGTAGAG — higher, -0.179
- CTGTATGA — higher, 0.147
- ACCATTCT — higher, 0.0248
- GACAGGAA — higher, 0.0604
- CACCCTGA — lower, -0.296
- ACTCCCAC — higher, -0.121
- GATGGCCA — higher, -0.0631
- TGATACAA — higher, 0.0578
- GTGCGTTA — higher, 0.0585
- CGACCTGC — higher, -0.205
- GTCAACGA — higher, -0.0964
- CGATGTGC — higher, -0.169
- CAGTGTGA — higher, -0.0672
- ATCAAGAA — higher, 0.149
- AGTATCCA — higher, -0.0247
- ACCCCTAT — higher, -0.171
- AAGATGAA — higher, -0.0212
- ATGCCTAG — higher, -0.155
- CAACCTCC — higher, -0.00121
- TGATTACA — higher, 0.148
- AGCTACTG — higher, -0.0717
- TAACGCCA — higher, -0.163
- ATTTATGG — higher, 0.0698
- GGAACAGA — higher, 0.0314
- CTGCCTAA — higher, -0.177
- CTCAGGTC — higher, -0.0238
- CATGACCC — higher, -0.177
- CACTTGCC — higher, -0.0834
- GCCACCAC — higher, -0.276
- CTCAACCC — higher, -0.0612
- CGTTTTCC — higher, 0.0573
- CATGTAGC — higher, -0.145
- TCTTTGCA — higher, 0.0819
- AAGCGTGC — higher, -0.101
- GCATACGA — higher, -0.154
- ATGACCCG — higher, -0.137
- CCGCAGAA — higher, 0.0503
- CTCTAACC — higher, -0.142
- CAGCTCCG — higher, 0.461
- CTTCTAAC — higher, 0.0204
- TAAGCCTA — higher, 0.155
- AACTATAA — higher, 0.204
- AATACTCG — higher, 0.139
- CTACAAGA — higher, 0.0288
- CGTCTGTC — higher, -0.213
- CGCGCACG — higher, -0.173
- GACATGAA — higher, 0.051
- CGCTTTCA — higher, 0.0224
- GTTCTCAA — higher, 0.167
- AGCCTATG — higher, -0.222
- GATGGACC — higher, -0.0525
- CGACGCAC — higher, 0.0224
- ACTTCGCG — higher, 0.00486
- ACTACAAG — higher, 0.0409
- GGACTTCA — higher, 0.321
- CGTAGCAG — higher, -0.128
